The structures appear in SMILES notation. About 540 (0.36%) of roughly 150,000 compounds showed an effect of 50% or more. The list shows a part of the results.

The assay deals with Plasmodium falciparum. In words: Primary screen in NF54 nanoGlo assay, in single point, at 2uM, 72h; a lower Z score goes with more inhibition. The note with it: timepoint 72 hour. The class given is functional, Erythrocyte.
Take `CC(C)c1nccc(NCCc2ccc[nH]2)n1`: the “% Inhibition” value is recorded as -5% and the Z score is listed as 0.79.
`CC1(C)C[C@H](NC(=O)c2cnnn2-c2cccc(F)c2)CO1`: the “% Inhibition” value is -6% and the Z score is listed as 0.95.
The corresponding values for `COc1ccc(OC)c(C2=NS(=O)(=O)N(C)C(C(=O)N3CCCCC3)=C2)c1` are -6% and 1.2.
On to `O=C1C[C@H](Nc2nccc(C(F)(F)F)n2)CN1CC(F)(F)F`, for which the “% Inhibition” value was -18% and the Z score is 2.5.
The corresponding values for `CC(C)C(=O)N1CCC([C@@H]2CN(C3CCOCC3)C[C@H]2COc2ccccc2)CC1` are -11% and 1.29.
For `Cc1cccc2cc(-c3noc(-c4ccccc4)n3)c(N3CCOCC3)nc12` the same measures were -18% and 3.34.
For `FC(F)(F)C1CCCC(c2nnc(-c3ccccn3)o2)C1` (stereo unspecified) the same measures were -14% and 1.5.
In the case of `CN1CCN(c2ccncc2NC(=O)c2ccc(Nc3ccn(C)n3)cc2)CC1`, the “% Inhibition” value is -11% and the Z score was 1.18.
Consider `CCN(CC)c1nc(-c2ccc(F)cc2)ncc1C(=O)N1CCOCC1`, for which the “% Inhibition” value is -23% and the Z score amounted to 2.92.
The corresponding values for `CNC(=O)c1cc(Oc2cccc(NC(=O)N3CCCC4(CC3)CC4)c2)ccn1` are -5% and 0.68.
For `COCCn1ccnc1CN(C)CC1CCOCC1` the same measures were 6% and -0.88.
For `CC(=O)c1ccc(N2CCN(c3cnc4cc(S(=O)(=O)N5CCCCC5)ccc4n3)CC2)cc1` the same measures were -25% and 4.05.
Take `CC(C)c1ccc(OC(=O)CN2CCCNC2=O)cc1`: the “% Inhibition” value is listed as 6% and the Z score was -0.91.
For `Cc1nn(C)c(C)c1C(C)NC(=O)CCC1CCCN(c2cc(NC3CC3)ncn2)C1` (stereo unspecified) the same measures were -8% and 1.56.
The corresponding values for `COc1ccc(C2=C(c3ccc(OC)cc3)C3(c4ccccc4)C(=O)C2(c2ccccc2)C2C(=O)NC(=O)C23)cc1` (stereo unspecified) are -6% and 1.
For `O=C(Cn1nnc2ccccc21)Nc1nc(-c2ccccc2)cs1`, the “% Inhibition” value came to 4% and the Z score was -0.49.
As for `O=C(CNc1cc(C(F)(F)F)cc(C(F)(F)F)c1)Nc1cccc(C(=O)NC2CC2)c1`, the “% Inhibition” value was found to be 3% and the Z score is on record as -0.5.
The corresponding values for `CCCn1cc(CNC(=O)c2c[nH]nc2-n2cnnn2)cn1` are -9% and 1.64.
Regarding `CN(Cc1noc(C2CCCC2)n1)C(=O)Nc1ccc(-c2nncn2C)cc1`, the “% Inhibition” value is given as 3% and the Z score is recorded as -0.51.
The corresponding values for `CC(C)[C@H](NC(=O)Nc1cccc(Cl)c1)C(=O)O` are -6% and 0.71.
Take `Cc1ccccc1NCC(=O)Nc1ncc(Cc2ccccc2)s1`: the “% Inhibition” value was -4% and the Z score was 0.57.
For `COc1ccc(C(=O)N2C[C@H]3CCC[C@@H](OC)[C@H]3C2)cc1F` the same measures were 1% and -0.05.
For `O=C(NC1CCC(Oc2ncccc2Cl)CC1)N1CCN2CCC[C@H]2C1` (stereo partly specified) the same measures were -5% and 0.71.
